From PubChem BioAssay AID686978 (National Center for Advancing Translational Sciences (NCATS), 2013)
About 64,000 (15%) of roughly 420,000 compounds were called active. Inconclusive results, whose numbers are uncertain, are shown with a selection of clear calls. Calls follow the shape of the dose curve; as a rule, active = well fitted inhibition curve with a large enough effect; inconclusive = small, poorly fitted or top-dose-only effect; inactive = flat fitted curve, though single readings scatter. No potency is given beside an inconclusive call; the fits are too rough.

Assay: qHTS for Inhibitors of human tyrosyl-DNA phosphodiesterase 1 (TDP1): qHTS in cells in absence of CPT; also: nearly all actives have a fitted effect of over 55% in size
Details: DT40 Tdp1-/- hTDP1 cells, no CPT, ATP luminescence, 48 h; series mostly up to 46.2 µM
Summary of the method: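 DT40 Tdp1-/-;hTDP1 cells, no CPT (DMSO vehicle only), 400 cells/well; compounds pin-transferred; ≥48 hr, 37 °C; CellTiter-Glo 30 min RT dark, luminescence read.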
Potency is read from the fitted curve at half-maximal effect; tags tell the direction and shape of the fitted curve.

Row | Structure (SMILES) | Potency
1 | CCn1c(SCC(=O)Nc2cc(C)on2)nc2c1c(=O)n(C)c(=O)n2C | inconclusive [inhibitor, single point]
2 | OC(c1ccc(F)c(F)c1)c1nc(-c2ccncc2)cs1 (stereo not given) | active: 8.2 µM
3 | CC(C)N1C(=O)CCC1C(=O)NCc1ccccc1Cl (stereo not given) | inactive
4 | COc1ccc(-c2oc(=O)c3cc(OC)c(OC)cc3c2/C=C/c2cccc([N+](=O)[O-])c2)cc1 | active: 9.2 µM
5 | Cc1nn(Cc2ccccc2)c(Cl)c1C(=O)OC1CCOC1=O (stereo not given) | inconclusive [inhibitor, single point]
6 | CC1(c2nnnn2-c2ccc3c(c2)OCCO3)CCC(=O)N1CCc1ccc(O)cc1 (stereo not given) | inactive
7 | Cc1cc(C)nc(N(C#N)S(=O)(=O)c2ccccc2)n1 | inactive
8 | COc1ccccc1N1CCN(C(=O)C2CCN(S(=O)(=O)c3ccc(C)cc3)CC2)CC1 | inconclusive [inhibitor, partial curve]
9 | O=C(C1CCN(C2CC(=O)N(c3ccc(Cl)cc3)C2=O)CC1)N1CCOCC1 (stereo not given) | inconclusive [inhibitor, single point]
10 | Cc1cccc(C)c1NC(=O)C(NC=O)c1ccccc1 (stereo not given) | inconclusive [inhibitor, partial curve]
11 | COc1cc(OC)cc(C(=O)NC(C(=O)NNC(=O)CN(C)S(=O)(=O)c2ccc(C)cc2)C(C)C)c1 (stereo not given) | inconclusive [inhibitor, single point]
12 | Cc1ccc(/C=C2/C(=O)N(c3ccccc3)C(=S)N2C)o1 | active: 23.1 µM
13 | CC1CCCN(C(=O)C(C)Sc2nc(-c3ccccc3)cc(C(F)(F)F)n2)C1 (stereo not given) | inconclusive [inhibitor, single point]
14 | Cc1ccccc1NC(=O)c1cccc(C(=O)Nc2ccccc2C)c1 | inconclusive [inhibitor, single point]
15 | Cc1ccc(S(=O)(=O)N2CCN(c3ccc4nnc(-c5ccccc5)n4n3)CC2)cc1 | inconclusive [inhibitor, partial curve]
16 | O=C1CCCN1c1ccc(S(=O)(=O)N2CCN(c3ccccn3)CC2)cc1 | inactive
17 | COc1ccc(CNC(=O)C/C(C)=N/NC(=O)c2ccccc2OC)cc1 | inactive
18 | CCOC(=O)C1=CN(Cc2ccco2)S(=O)(=O)N(CC)C1c1ccc(F)c(Cl)c1 (stereo not given) | inconclusive [inhibitor, single point]
19 | COc1ccccc1-c1cnc2c(c1)C(=O)N([C@@H](C)CO)C[C@H](C)[C@H](CN(C)C)O2 | inactive
20 | Cc1ccc(CS(=O)Cc2ccc(C(=O)NCc3ccc(OC(C)C)cc3)o2)cc1 (stereo not given) | inactive
